Experimental data reported in the antibiotic and cytotoxicity screens of Wong et al. (2023).
The list shows a part of the results.

test system: S. aureus RN4220; test: growth inhibition call (relative growth <= 0.2); details: 50 µM

Growth inhibition call, active:
CC1(C)SC2C(NC(=O)C(C(=O)[O-])c3ccccc3)C(=O)N2C1C(=O)[O-].[Na+].[Na+] (stereo not given)

Growth inhibition call, inactive:
C[C@@H]1CN([C@@H](C)CO)S(=O)(=O)c2ccc(/C=C/c3ccccc3)cc2O[C@H]1CN(C)C(=O)CN1CCOCC1
C=CCOC(=O)[C@H]1[C@@H]2C(=O)O[C@@H](c3ccccc3)[C@@H](c3ccccc3)N2[C@@H](c2ccc(OCCOC(=O)[C@@H]3C[C@@H]4C(=O)N[C@@H](CC(C)C)C(=O)N4[C@@H]3c3ccc(O)cc3)cc2)[C@]12C(=O)Nc1ccc(I)cc12
C[C@@H]1CCCCO[C@@H](CN(C)S(=O)(=O)c2cn(C)cn2)[C@H](C)CN([C@@H](C)CO)C(=O)c2cc(NS(=O)(=O)c3cccs3)ccc2O1
C[C@@H]1CCCCO[C@@H](CN(C)Cc2ccc(C(F)(F)F)cc2)[C@H](C)CN([C@H](C)CO)C(=O)c2cc(NC(=O)Nc3ccc4c(c3)OCO4)ccc2O1
COc1ccc(NC(=O)N(C)C[C@H]2OCCCC[C@H](C)Oc3ccc(NS(=O)(=O)c4ccc(C)cc4)cc3C(=O)N([C@H](C)CO)C[C@@H]2C)cc1
NC(=O)c1c(Cl)ncc2c1NCC2
Cc1sc2ncnc(N3CCC[C@@H](Cn4cc(C(C)(C)N)nn4)C3)c2c1C
Cc1ccc(S(=O)(=O)Nc2cccc3c2O[C@H](CN(C)S(=O)(=O)c2ccccc2)[C@@H](C)CN([C@H](C)CO)C3=O)cc1
COc1cccc(NC(=O)N[C@@H]2CC[C@@H](CC(=O)N3CCOCC3)O[C@@H]2CO)c1
NCCc1ccn[nH]1
C[C@H](CO)N1C[C@H](C)[C@H](CN(C)S(=O)(=O)c2ccccc2F)Oc2cc(-c3ccncc3)ccc2S1(=O)=O
C[C@H]1CN([C@@H](C)CO)C(=O)c2cc(NC(=O)CCCN(C)C)ccc2O[C@H]1CN(C)S(=O)(=O)c1cccs1
COc1ccc(S(=O)(=O)Nc2ccc3c(c2)C(=O)N([C@H](C)CO)C[C@H](C)[C@H](CN(C)Cc2ccccc2)OCCCC[C@H](C)O3)cc1
OC1(c2ccc(Cl)c(C(F)(F)F)c2)CCN(CCCC(c2ccc(F)cc2)c2ccc(F)cc2)CC1
C[C@H](CO)N1C[C@H](C)[C@H](CN(C)S(C)(=O)=O)OCCCC[C@H](C)Oc2ccc(NS(=O)(=O)c3ccccc3)cc2C1=O
COc1ccc(CN(C)C[C@H]2OCCCC[C@@H](C)Oc3ccc(NS(=O)(=O)c4c(C)noc4C)cc3C(=O)N([C@H](C)CO)C[C@H]2C)cc1
CCS(=O)(=O)Nc1ccc2c(c1)C(=O)N(C)[C@@H]1CC[C@@H](CC(=O)NCCCN3CCOCC3)O[C@H]1CO2
N=C(N)SCc1ccc(B(O)O)cc1
Cc1noc(C)c1S(=O)(=O)Nc1ccc2c(c1)C(=O)N([C@H](C)CO)C[C@H](C)[C@H](CN(C)Cc1ccc(C(F)(F)F)cc1)OCCCC[C@H](C)O2
C[C@H](CO)N1C[C@H](C)[C@@H](CN(C)CC2CCCCC2)Oc2c(NC(=O)CCCCCC(=O)Nc3ccccc3N)cccc2C1=O
C[C@H](CO)N1C[C@H](C)[C@H](CN(C)Cc2ccc(C(F)(F)F)cc2)Oc2ccc(NC(=O)Nc3ccc(C(F)(F)F)cc3)cc2C1=O
NNc1ccc2nncn2n1
COC(=O)c1ccc2c(c1)no[n+]2[O-]
COc1ccc(CN(C)C[C@@H]2Oc3c(NC(=O)c4cc(C)nn4C)cccc3C(=O)N([C@@H](C)CO)C[C@H]2C)cc1
COC1CC(OC2C(C)=CCC3CC(CC4(CCC(C)C(C5CCCCC5)O4)O3)OC(=O)C3C=C(C)C(=NO)C4OCC(=CC=CC2C)C34O)OC(C)C1O (stereo not given)
CCCNC(=O)N(C)C[C@H]1Oc2cc(-c3ccc(C)cc3)ccc2S(=O)(=O)N([C@H](C)CO)C[C@@H]1C
CNC[C@@H]1OCCCC[C@H](C)Oc2ccc(NS(=O)(=O)c3c(C)noc3C)cc2C(=O)N([C@@H](C)CO)C[C@H]1C
Cc1noc(C)c1NC(=O)N(C)C[C@@H]1OCCCC[C@H](C)Oc2ccc(NS(=O)(=O)c3cccs3)cc2C(=O)N([C@@H](C)CO)C[C@H]1C
O=S(=O)(NCC[C@@H]1CC[C@@H](NS(=O)(=O)c2cccc(Cl)c2)[C@H](CO)O1)c1cccc(F)c1
